Whole data set: some 110,000 compounds, median “z-score” near -0.1, cut for the highest 2% near 2. This is one part of the list. Activity calls are given as the source filed them.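 Rule for the calls: active = z-score in the third read window above 3 or below -3; inactive = the rest.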

This test deals with Metabotropic glutamate receptor 8 (Rattus norvegicus) (UniProt P70579). In words: rat mGluR8 modulators via GIRK flux, primary screen, cell-based, thallium flux, HTS (AID 488969). The conditions noted are these: HEK293 rat mGluR8, GIRK (G protein-gated inwardly rectifying potassium channel) thallium flux, FluoZin2; at 10 µM; stronger effect = higher value; submaximal glutamate (EC20) added with thallium.
UniProt P70579, sequence (P70579 whole entry, looked up): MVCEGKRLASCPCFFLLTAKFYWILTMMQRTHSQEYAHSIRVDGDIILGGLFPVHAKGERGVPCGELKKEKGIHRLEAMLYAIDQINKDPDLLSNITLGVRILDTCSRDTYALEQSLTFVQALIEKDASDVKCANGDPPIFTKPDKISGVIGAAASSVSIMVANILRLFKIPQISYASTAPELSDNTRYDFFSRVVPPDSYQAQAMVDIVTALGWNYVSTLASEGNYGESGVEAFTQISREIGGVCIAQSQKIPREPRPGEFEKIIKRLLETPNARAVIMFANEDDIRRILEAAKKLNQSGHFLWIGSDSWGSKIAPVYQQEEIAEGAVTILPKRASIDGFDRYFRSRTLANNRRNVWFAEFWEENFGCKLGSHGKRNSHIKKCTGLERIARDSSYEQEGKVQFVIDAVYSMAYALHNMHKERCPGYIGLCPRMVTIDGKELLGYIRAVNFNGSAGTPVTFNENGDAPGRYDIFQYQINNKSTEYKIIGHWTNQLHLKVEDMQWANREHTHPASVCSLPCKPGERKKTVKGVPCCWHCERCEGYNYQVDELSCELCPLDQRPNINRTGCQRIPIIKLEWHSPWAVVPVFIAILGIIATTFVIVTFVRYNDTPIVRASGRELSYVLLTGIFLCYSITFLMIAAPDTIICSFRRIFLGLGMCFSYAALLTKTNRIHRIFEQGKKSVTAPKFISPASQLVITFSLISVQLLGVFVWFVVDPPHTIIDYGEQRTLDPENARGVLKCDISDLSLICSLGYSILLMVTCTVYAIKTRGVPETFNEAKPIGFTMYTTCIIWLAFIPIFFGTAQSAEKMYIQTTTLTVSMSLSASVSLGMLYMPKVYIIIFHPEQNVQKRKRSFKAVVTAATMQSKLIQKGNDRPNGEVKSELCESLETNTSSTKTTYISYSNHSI
Consider `COc1ccc(OCCCC(=O)NCC(C)C)cc1`, for which the z-score was 0.365.
As for `C=CCSc1nnc2nc3[nH]c4c(C)cccc4c3nn12`, the figure is -0.341.
The result for `O=C(CCn1c(=O)oc2ccccc21)N1CCCCCC1` reads 1.2.
Compound `CC(=O)N1CCN(c2nnnn2-c2ccccc2)CC1` displayed a z-score of 0.0604.
The result for `COc1cc(C)c(-c2[nH]ncc2-c2csc(C)n2)c(O)c1` reads 0.00339; that for `CCOC(=O)c1cn(CC(=O)Nc2ccc(C)cc2)nn1`, 0.247; that for `Cc1nn(-c2ccccc2)c(C)c1C(=O)Nc1nnc(-c2ccco2)o1`, 0.755.
The result for `CCOC(=O)Nc1cccc(Nc2ccccc2)c1` reads -0.654.
The result for `Cc1cc(C)n(-c2nc3ccccc3nc2Nc2ccc3[nH]c(=O)[nH]c3c2)n1` reads -0.333; that for `N/C(Cc1ccc(Cl)cc1)=N\OC(=O)c1ccccc1`, 0.174.
As for `Cc1ccc(OCCOCCNC(C)(C)C)c([N+](=O)[O-])c1`, the z-score is -0.619.
As for `COc1ccc(C2=NN(S(C)(=O)=O)C(c3ccc4nccnc4c3)C2)cc1` (stereo not given), the figure is -0.209; as for `Cc1ccc(N(CC(=O)NCCc2ccccc2)S(=O)(=O)c2c(C)noc2C)cc1`, -0.292; as for `CCn1nc(C(=O)Nc2ccc3nc(C)sc3c2)c2ccccc2c1=O`, -1.1.
`C=CCNC(=S)/N=c1\sccn1C` showed a z-score of -0.359.
The result for `O=C1CC(c2ccccc2)CC(O)=C1C=NCc1ccccc1` (stereo not given) reads -0.229; that for `COc1ccc(/C=N/NC(=O)CCc2ccccc2)cc1O`, 0.0155.
Regarding `COc1ccc(/C=C2\SC(=O)N(CCNC(=O)CCS(=O)(=O)c3ccc(C)cc3)C2=O)cc1`, the z-score was -0.156.
The result for `CCOC(=O)Cc1csc(NC(=O)CCCCCN2C(=O)c3cccc4cccc(c34)C2=O)n1` reads -0.241; that for `O=C(COC(=O)CCS(=O)(=O)c1ccc(Cl)cc1)NCCc1ccccc1`, -0.341.
The result for `COc1cc(Cn2c(C(=O)O)cc3sccc32)cc(OC)c1OC` reads 1; that for `Cc1cccc(-c2noc(C3CCCCC3)n2)c1`, 0.407; that for `COc1ccc(C)cc1-n1c(N)c(C#N)c(C#N)c1-c1ccc(OC)c(OC)c1OC`, -1.25.
`N#Cc1ccc(C(=O)Nc2nnc(-c3ccccn3)o2)cc1` displayed a z-score of -0.232.
As for `COc1ccc2c(CC(=O)OCC(=O)NC(=O)c3cccn3C)coc2c1`, the figure is 0.246; as for `COc1ccc(N(C(C)C(=O)N/N=C/c2ccc(OC(C)C)cc2)S(C)(=O)=O)cc1` (stereo not given), 0.783.
The result for `CN(CC(=O)Nc1ccccc1Cl)C(=O)CSc1nc2ccccc2s1` reads -0.261.
The result for `CCOc1ccc(NC(=O)C[n+]2ccccc2)cc1` reads -0.353.
For the compound `CN(c1ccccc1C(=O)N1CCc2ccccc2C1)S(C)(=O)=O`, the z-score is -0.121.
As for `Cc1nn(Cc2c(Cl)cccc2Cl)c(C)c1NC(=O)/C=C/c1cnn(C)c1C`, the figure is 0.463; as for `Cc1cccc(-c2nc(CN3CCCC(C(=O)NC4CCCC4)C3)c(C)o2)c1` (stereo not given), -1.37; as for `O=C(COc1ccc(S(=O)(=O)NCc2ccccc2)cc1Cl)N1CCOCC1`, 0.478.
As for `CCCNS(=O)(=O)c1ccc(NC(=O)c2cccnc2)cc1`, the figure is -0.00977; as for `Cc1cccc(Cn2cnc3c(nnn3Cc3ccc(Cl)cc3)c2=O)c1`, -0.705.
The result for `O=C1NC(c2ccccc2)=C(c2nc3ccccc3s2)C(c2ccccc2)N1` (stereo not given) reads -0.336.
The compound `CC(=O)c1cccc(NC(=O)N2C3CCC2CC(O)(c2cccnc2)C3)c1` (stereo not given) showed a z-score of 0.301.
The result for `COc1ccc(-c2cc(=O)oc3cc(OCC(C)=O)ccc23)cc1` reads -0.444.
The result for `O=C(NC1CCCCC1)N1CCCCCC1` reads -0.274; that for `CCCCCCOC(=O)c1ccccc1NC(=O)/C=C/C(=O)O`, -0.225.
In turn, `CCc1sc(N(C(=O)Cc2ccccc2)c2ccccc2)nc1-c1ccccc1` registered a z-score of -0.282.
In turn, `O=C(NC(=S)Nc1ccccc1)c1ccc(-c2ccccc2)cc1` came in with a z-score of 0.0142.
On to `Cc1cccc(CN2CCC(CNC(=O)CCNC(=O)Cn3ccc4ccccc4c3=O)CC2)c1`, for which the z-score is -0.122.
The compound `CCOC(=O)c1sc2nccc(N(C)C)c2c1N=CNOCc1c(F)cccc1Cl` gave a z-score of -0.108.
In turn, `O=C(Nc1nc2ccccc2s1)C1CC(=O)N(c2ccc(F)cc2)C1` (stereo not given) came in with a z-score of 0.674.
`NC(=O)[C@H](Cc1cc2ccccc2s1)NC(=O)[C@@H]1CC2(CC(c3cccc(NC(=O)[C@@H]4CCC(=O)N4)c3)=NO2)CN1C(=O)/C=C/c1c(F)cccc1Cl` (stereo not given in full): the z-score came to 0.0332.
The result for `O=C(Nc1ccc(NC(=O)c2sc3ccccc3c2Cl)cc1)c1ccco1` reads 0.00434; that for `CCC(C)(C)n1nnnc1C(c1cc(OC)ccc1OC)N1CCC(C(N)=O)CC1` (stereo not given), -0.05.
As for `COc1ccc(-c2ccc(-c3noc(C)n3)c(OC)n2)cc1`, the figure is 0.368.
For the compound `O=C(NC1CCCCC1)C(c1ccc(Cl)cc1)N1CCC2(CC1)OCCO2` (stereo not given), the z-score was -0.136.
`Fc1ccc(-c2nc3ccncc3[nH]2)cc1` showed a z-score of -0.635.
On to `CC1Cc2ccccc2N1C(=O)C1CCCCN1S(=O)(=O)c1ccccc1` (stereo not given), for which the z-score was -0.984.
`COC(=O)c1sc(NC(=S)NC(=O)c2ccccc2Cl)nc1C`: the z-score is active: 5.46.
Turning to `COc1ccc(-c2noc(CCC(=O)Nc3ccc(C)c(C)c3)n2)cc1`, the z-score amounted to 1.09.
As for `O=C(N/N=C/c1ccco1)c1cnccn1`, the figure is -0.0222.
As for `O=[N+]([O-])c1ccccc1SN(Cc1ccccc1)c1ccccn1`, the figure is -0.276; as for `CCOC(=O)c1nc[nH]c1C`, -0.162.
`CC(C(=O)NCCCN1CCOCC1)n1cccc1C(=O)c1ccccc1` (stereo not given) gave a z-score of 0.622.
In turn, `COc1ccccc1CCn1cnc2c3cc(C)ccc3n(C)c2c1=O` came in with a z-score of -1.2.
As to `COC(=O)c1sc2ncccc2c1OCc1cccc(Cl)c1`, the z-score was -0.111.
As for `COc1ccc(-c2csc(NC(=O)c3ccco3)n2)cc1`, the figure is -0.444; as for `COc1ccc(Br)cc1CNC(=O)C1CCC(=O)N1C(C)C` (stereo not given), -0.111.
As for `CCN(Cc1ccccc1)C(=O)CSc1nc(C)cc(C)c1C#N`, the figure is -0.25.
`Cc1ccc(N2C(=O)C(O)(C(F)(F)F)C3=C2CC(C)(C)CC3=O)cc1C` (stereo not given) displayed a z-score of -0.405.
The result for `Cc1cc(C)c2c(c1)/C(=N/NC(=S)Nc1ccc(F)cc1)CCC2` reads 2.6; that for `Cc1c(NC(=O)CSc2nnc3sc4ccccc4n23)c(=O)n(-c2ccccc2)n1C`, -0.134.
As for `CCCN(CCC)c1c([N+](=O)[O-])c(=O)oc2ccccc12`, the figure is -0.893; as for `COc1ccc(/C=N/S(=O)(=O)CCc2ccccc2)c(OC)c1`, -0.284.
The compound `O=C(NCc1ccccc1)c1c(O)c2cccc3c2n(c1=O)CCC3` gave a z-score of -0.335.
As for `CC(C(N)=O)N1C(=O)C2C3C=CC(C3)C2C1=O` (stereo not given), the figure is -0.159.
Consider `Cc1cnc(NC(=O)C2CCCC2)s1`, for which the z-score was -0.0338.
The result for `COc1ccc(N2CCN(C(=O)CN(CCc3ccccc3)S(C)(=O)=O)CC2)cc1` reads -0.213; that for `Cc1nnc(SCC(=O)Nc2ccc(Cl)cn2)[nH]c1=O`, -0.143; that for `COc1ccc(-c2csc(C)n2)cc1`, -0.337.
The result for `CC1CCN(C(=S)Nc2ccc(F)cc2)CC1` reads -0.195.
As for `CCN1CCN(C(=O)c2ccc3c(=O)n(C4CCCC4)c(=S)[nH]c3c2)CC1`, the figure is active: 5.09.
`O=S(Cc1ccccc1)CC(O)(c1ccc(Cl)cc1)c1ccc(Cl)cc1` (stereo not given): the z-score worked out at 0.285.
As for `CC1N(O)C(c2ccc(Cl)cc2Cl)N(O)C1(C)C` (stereo not given), the figure is 0.381; as for `COc1ccc(N2C(=O)C3CCCN3C2c2cccc(C)c2)cc1` (stereo not given), -0.338.
As to `CCOc1ccccc1-c1nc(-c2ccncc2)no1`, the z-score is 0.0712.
The compound `CCOC(=O)c1cnc2cc(C)nn2c1-c1ccccc1` registered a z-score of 0.228.
The result for `O=C1CCc2cc(S(=O)(=O)NC(Cc3ccccc3)C(=O)NCCC3=CCCCC3)ccc2N1` (stereo not given) reads -0.234; that for `CCc1ccc(C(=O)CSc2nc3cc(S(=O)(=O)N4CCOCC4)ccc3n2CC)cc1`, -0.33; that for `COCCN(Cc1cc2cc3c(cc2nc1Cl)OCO3)C(=O)Nc1ccc(OC)cc1`, -0.0519.
The result for `CC1CCN(CCCNC(=O)c2cc3c(=O)n(C)c4ccccc4c3n2C)CC1` reads 2.7.
As for `Oc1ccccc1/C=N/Nc1nccnc1Cl`, the figure is 0.965; as for `CCn1nc(CC(=O)Nc2nnc(CC(=O)N3CCOCC3)s2)c2ccccc2c1=O`, -0.868.
Consider `O=C(CSc1nc2ccccc2c(=O)n1CC1CCCO1)N1CCN(c2ccccc2)CC1` (stereo not given), for which the z-score is -2.48.
Regarding `CC1CCN(CCCCOc2ccccc2Br)CC1`, the z-score is -0.0355.
With `CCn1c(C(=O)N2CCCC(C(=O)O)C2)cc2sccc21` (stereo not given), the z-score was 0.0393.
The result for `Cn1c(=O)oc2cc(S(=O)(=O)NCC3CCCO3)ccc21` (stereo not given) reads 0.223; that for `CCCCOC(=O)NC(NCC(O)c1ccccc1)(C(F)(F)F)C(F)(F)F` (stereo not given), 0.379.
For the compound `COCCNC(=O)COc1ccccc1C`, the z-score was -0.241.
As for `COc1ccccc1C1CC(=O)Nc2c1c(=O)n(C)c(=O)n2C` (stereo not given), the figure is -0.0435; as for `COc1cccc(Nc2nc(-c3sc(NC(=O)c4ccccc4)nc3C)cs2)c1`, -0.232.
Turning to `CN(C)c1ccc(NS(=O)(=O)c2ccc(Cl)cc2)cc1`, the z-score was 0.00118.
Compound `CC(/C=C/c1ccc2c(c1)OCO2)=N/NC(=O)c1ccc(C)nc1` displayed a z-score of 0.0861.
The result for `COC(=O)C1=C(C)N(C)C(=O)NC1c1cc(Cl)c(O)c(OC)c1` (stereo not given) reads 0.559.
`O=C(Nc1nnc(-c2ccncc2)o1)C1CCCCC1`: the z-score turned out to be 1.01.
Compound `O=C(NCCN1CCN(C(=O)c2cccs2)CC1)c1cccs1` gave a z-score of 0.221.
Turning to `O=C1c2ccccc2NC2(CCCC2)N1O`, the z-score came out at 0.103.
The result for `Cc1cccc2c1Sc1ccccc1CC2=O` reads -0.19; that for `c1ccc(CCc2nc(-c3ccncc3)no2)cc1`, 0.202.
As for `Cn1ncc2cc(NC(=S)NC(=O)c3ccccc3)ccc21`, the figure is 2.21.
The result for `COCCn1c(C)cc(C(=O)CSc2ccc3ccccc3n2)c1C` reads -0.331; that for `COc1ccc(-n2ccsc2=S)cc1`, -0.032.
Take `O=C(C1=C(O)C(=O)N(CCN2CCOCC2)C1c1ccncc1)c1ccco1` (stereo not given): the z-score was found to be 1.07.
As for `Nc1nnc(SCC(=O)NCCOc2ccccc2)s1`, the z-score is -0.164.
The result for `O=C1c2ccccc2-c2onc3c(Oc4ccccc4)cc(O)c1c23` reads -0.148.
On to `Cn1ncc(C#N)c1/N=C/N1CCCC1`, for which the z-score is -0.709.
As for `Cn1cnc2cc(NS(=O)(=O)c3ccc(Br)cc3)ccc21`, the figure is 0.0485.
As for `O=C(Nc1cccc(Cl)c1)C1CCCN(S(=O)(=O)c2ccc(F)cc2)C1` (stereo not given), the figure is -0.202; as for `COc1ccc(NC(=O)CN2CCN(CC(=O)Nc3ccccc3F)CC2)c(OC)c1`, 0.278.
As for `NC(=S)N/N=C/c1coc2c(ccc3ccccc32)c1=O`, the figure is -2.17; as for `O=C(Nc1cccc2ccccc12)N1CCN(c2ccccc2)CC1`, -0.177; as for `CCOc1ccccc1NC(=O)C1CCN(S(=O)(=O)c2ccc(OC)c(OC)c2)CC1`, 0.0579.

Source of the values: PubChem BioAssay AID488969 (Vanderbilt High Throughput Screening Facility, 2010).
